This is one part of the list. The list includes weakly bound sequences.

The target of the assay is T1, MBP-FoxP3dN (UniProt Q99JB6).
T1 sequence: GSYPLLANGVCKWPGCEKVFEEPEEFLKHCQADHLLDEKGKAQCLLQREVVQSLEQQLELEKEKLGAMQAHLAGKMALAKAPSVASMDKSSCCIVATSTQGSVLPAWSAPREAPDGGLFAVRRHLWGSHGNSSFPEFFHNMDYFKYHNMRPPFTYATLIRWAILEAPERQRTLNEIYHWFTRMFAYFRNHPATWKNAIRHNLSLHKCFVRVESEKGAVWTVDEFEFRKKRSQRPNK
In words: PD-seq (MBP pull-down with sequencing). The note with it: 20 mM Tris-HCl pH 7.5, 100 mM NaCl, 1.5 mM MgCl2, 0.4 uM protein, 0.1 uM dsDNA library, 30 min, room temperature, amylose pull-down; high values mean tight binding; double strand, one strand shown.
Turning to “GATGATTGTTCTCCCAGCTGATGAATTTCTGGAGTCGAGTAAACAAATTTTCCTAATCTTTCTGTTCAAGCGCCATCTAC”, the binding signal (RPM ratio (pull-down/input)) amounted to 0.197.

Regarding “GATGATTGTTCTCCCAGCTGATGAATTTTCTTGCTCGAGTAAACAAATTTTCCTAATCTTTCTGTTCAAGCGCCATCTAC”, the binding signal (RPM ratio (pull-down/input)) was found to be 0.298.

With “GATGATTGTTCTCCCAGCTGATGAATTAACTGAGTCGAGTAAACAAATTTTCCTAATCTTTCTGTTCAAGCGCCATCTAC”, the binding signal (RPM ratio (pull-down/input)) is 0.225.

With “GATGATTGTTCTCCCAGCTGATGAATTGTGGGATTCGAGTAAACAAATTTTCCTAATCTTTCTGTTCAAGCGCCATCTAC”, the binding signal (RPM ratio (pull-down/input)) worked out at 0.702.

“GATGATTGTTCTCCCAGCTGATGAATTGCAATGATCGAGTAAACAAATTTTCCTAATCTTTCTGTTCAAGCGCCATCTAC”: the binding signal (RPM ratio (pull-down/input)) amounted to 1.18.

As to “GATGATTGTTCTCCCAGCTGATGAATTAAACGGCTCGAGTAAACAAATTTTCCTAATCTTTCTGTTCAAGCGCCATCTAC”, the binding signal (RPM ratio (pull-down/input)) came out at 0.333.

“GATGATTGTTCTCCCAGCTGATGAATTTTGACCGTCGAGTAAACAAATTTTCCTAATCTTTCTGTTCAAGCGCCATCTAC”: the binding signal (RPM ratio (pull-down/input)) is 0.489.

For “GATGATTGTTCTCCCAGCTGATGAATTCTCTTCCTCGAGTAAACAAATTTTCCTAATCTTTCTGTTCAAGCGCCATCTAC”, the binding signal (RPM ratio (pull-down/input)) was found to be 0.234.

Regarding “GATGATTGTTCTCCCAGCTGATGAATTGCGTCTATCGAGTAAACAAATTTTCCTAATCTTTCTGTTCAAGCGCCATCTAC”, the binding signal (RPM ratio (pull-down/input)) was 1.52.

Consider “GATGATTGTTCTCCCAGCTGATGAATTGTCCGACTCGAGTAAACAAATTTTCCTAATCTTTCTGTTCAAGCGCCATCTAC”, for which the binding signal (RPM ratio (pull-down/input)) is 0.25.

For the sequence “GATGATTGTTCTCCCAGCTGATGAATTTAGGACATCGAGTAAACAAATTTTCCTAATCTTTCTGTTCAAGCGCCATCTAC”, the binding signal (RPM ratio (pull-down/input)) is 0.527.

With “GATGATTGTTCTCCCAGCTGATGAATTGGACGCATCGAGTAAACAAATTTTCCTAATCTTTCTGTTCAAGCGCCATCTAC”, the binding signal (RPM ratio (pull-down/input)) is 1.01.

As for “GATGATTGTTCTCCCAGCTGATGAATTTGCAGAATCGAGTAAACAAATTTTCCTAATCTTTCTGTTCAAGCGCCATCTAC”, the binding signal (RPM ratio (pull-down/input)) is 0.301.

Take “GATGATTGTTCTCCCAGCTGATGAATTTGCTAATTCGAGTAAACAAATTTTCCTAATCTTTCTGTTCAAGCGCCATCTAC”: the binding signal (RPM ratio (pull-down/input)) is 0.79.

As for “GATGATTGTTCTCCCAGCTGATGAATTCGACCTGTCGAGTAAACAAATTTTCCTAATCTTTCTGTTCAAGCGCCATCTAC”, the binding signal (RPM ratio (pull-down/input)) stood at 0.319.

For “GATGATTGTTCTCCCAGCTGATGAATTCTGTTCGTCGAGTAAACAAATTTTCCTAATCTTTCTGTTCAAGCGCCATCTAC”, the binding signal (RPM ratio (pull-down/input)) is 0.812.

“GATGATTGTTCTCCCAGCTGATGAATTATGTTATTCGAGTAAACAAATTTTCCTAATCTTTCTGTTCAAGCGCCATCTAC”: the binding signal (RPM ratio (pull-down/input)) was 7.23.

On to “GATGATTGTTCTCCCAGCTGATGAATTTCAGGCGTCGAGTAAACAAATTTTCCTAATCTTTCTGTTCAAGCGCCATCTAC”, for which the binding signal (RPM ratio (pull-down/input)) worked out at 0.461.

Turning to “GATGATTGTTCTCCCAGCTGATGAATTAAGGCCGTCGAGTAAACAAATTTTCCTAATCTTTCTGTTCAAGCGCCATCTAC”, the binding signal (RPM ratio (pull-down/input)) turned out to be 0.582.

For “GATGATTGTTCTCCCAGCTGATGAATTAGAGGCATCGAGTAAACAAATTTTCCTAATCTTTCTGTTCAAGCGCCATCTAC”, the binding signal (RPM ratio (pull-down/input)) was 1.28.

For the sequence “GATGATTGTTCTCCCAGCTGATGAATTGACTTATTCGAGTAAACAAATTTTCCTAATCTTTCTGTTCAAGCGCCATCTAC”, the binding signal (RPM ratio (pull-down/input)) was 0.621.

“GATGATTGTTCTCCCAGCTGATGAATTTCGCGCCTCGAGTAAACAAATTTTCCTAATCTTTCTGTTCAAGCGCCATCTAC”: the binding signal (RPM ratio (pull-down/input)) turned out to be 1.73.

Regarding “GATGATTGTTCTCCCAGCTGATGAATTTATGGCTTCGAGTAAACAAATTTTCCTAATCTTTCTGTTCAAGCGCCATCTAC”, the binding signal (RPM ratio (pull-down/input)) is 1.11.

For “GATGATTGTTCTCCCAGCTGATGAATTGTGCTTATCGAGTAAACAAATTTTCCTAATCTTTCTGTTCAAGCGCCATCTAC”, the binding signal (RPM ratio (pull-down/input)) was found to be 5.43.

Regarding “GATGATTGTTCTCCCAGCTGATGAATTGCTCGCCTCGAGTAAACAAATTTTCCTAATCTTTCTGTTCAAGCGCCATCTAC”, the binding signal (RPM ratio (pull-down/input)) is 0.728.

As to “GATGATTGTTCTCCCAGCTGATGAATTCGACTTGTCGAGTAAACAAATTTTCCTAATCTTTCTGTTCAAGCGCCATCTAC”, the binding signal (RPM ratio (pull-down/input)) is 0.606.

Regarding “GATGATTGTTCTCCCAGCTGATGAATTACGGTGTTCGAGTAAACAAATTTTCCTAATCTTTCTGTTCAAGCGCCATCTAC”, the binding signal (RPM ratio (pull-down/input)) turned out to be 0.933.

As for “GATGATTGTTCTCCCAGCTGATGAATTCTGCTTCTCGAGTAAACAAATTTTCCTAATCTTTCTGTTCAAGCGCCATCTAC”, the binding signal (RPM ratio (pull-down/input)) is 2.01.

Regarding “GATGATTGTTCTCCCAGCTGATGAATTGAGGTATTCGAGTAAACAAATTTTCCTAATCTTTCTGTTCAAGCGCCATCTAC”, the binding signal (RPM ratio (pull-down/input)) was 0.974.

As to “GATGATTGTTCTCCCAGCTGATGAATTTTATACTTCGAGTAAACAAATTTTCCTAATCTTTCTGTTCAAGCGCCATCTAC”, the binding signal (RPM ratio (pull-down/input)) was 0.464.

In the case of “GATGATTGTTCTCCCAGCTGATGAATTAAATAGCTCGAGTAAACAAATTTTCCTAATCTTTCTGTTCAAGCGCCATCTAC”, the binding signal (RPM ratio (pull-down/input)) came to 0.406.

With “GATGATTGTTCTCCCAGCTGATGAATTCCGCCCGTCGAGTAAACAAATTTTCCTAATCTTTCTGTTCAAGCGCCATCTAC”, the binding signal (RPM ratio (pull-down/input)) is 2.48.

For the origin of these results see article PMC12820563.
